Reference: the supplement of paper PMC11417369
± gives the standard deviation of the averaged measurements. The list shows a part of the results.

Tested on: PfAP2-G AP2 domain (GST-tagged)
Assay: gcPBM binding intensity (ln(normalized median fluorescence intensity)); higher = stronger DNA binding
Procedure, shortened: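 After 1 h on an Agilent 4 × 180k array of primer-extended double-stranded 36-bp intergenic genomic probes and negative controls, bound GST-tagged P. falciparum DNA-binding domains were detected with Alexa488 anti-GST antibody and scanned at 488 nm. The domains had been expressed in E. coli, and binding took place in 1× PBS with 1% milk, 0.2 mg/ml BSA, 0.5% salmon testes DNA and 0.03% Triton X-100. Binding intensity is the highest Masliner-normalised natural-log median intensity across replicate spots of either probe orientation.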

Point of comparison: “TGATTTTTTTTTTTTTTTTTTTTTTTTTTAGTTTGC [CACACA_negctrl_site1057]”, “gcPBM binding intensity (ln)” value 9.63 ± 0.14. Against it:
- TAATATAAAAAAGGTACTACACGAAGGAATAAAAAT [XGTACX_site6872] — higher, 11.1 ± 0.64
- CAGAAATAGAGATACACACACACATATATTTATGTA [CACACA_site3968] — higher, 9.895 ± 0.021
- TATAAATATATGTATGCACACATTTTTTTTGGAAAA [CACACA_site1070] — higher, 10.1 ± 0.18
- TATAAAAATAGGATTTGTACATATAAAAAAGGAAAA [XGTACX_site8678] — higher, 10.8 ± 0.51
- TATATGCATAATAACTGTACACAAATTGGGGTTGAT [XGTACX_site459] — higher, 11.6 ± 0.63
- ATATAAATATATGTATGTACGCATGTATGTATCTAT [XGTACX_site3290] — higher, 11.5 ± 0.95
- TATATATATCTGTACACACACACATATAAATAAATA [CACACA_site4405] — higher, 11.4 ± 1
- GAGAAATGGGGACACACACACATATTATATATATAT [CACACA_site4943] — higher, 11.5 ± 0.93
- AAGCACAAAAAATACACACACAAAAAATAAAAAAAG [CACACA_site1840] — higher, 10.1 ± 0.22
- ATTATGTATACATAAACACACATATATATAAAAAAA [CACACA_site262] — higher, 10.1 ± 0.18
- ATGTATGTTTGTTATGCACACAAATGCATCTTATTT [CACACA_site8861] — higher, 10.055 ± 0.007
- ATAATGAACAATATTATATATAAAATATAATTTATA [GTGCAC_negctrl_site564] — within error, 9.74 ± 0.21
- AAATAATTTACTTAATGTACATATATATATATATAT [XGTACX_site8594] — higher, 11.1 ± 0.51
- ATATTTATTTGTTAGTGTACATACATATATATATAT [XGTACX_site1347] — higher, 11.6 ± 1
- ATTATATATATGTGCACACAAAAGATATATATATAT [CACACA_site5205] — higher, 10.5 ± 0.33
- AAAAATAAACAATATATAGTTATATATATATATATA [TGCATGCA_negctrl_site82] — within error, 9.98 ± 0.68
- TTTTAATTTATTTATGCACACATATATAATTACACA [CACACA_site8126] — higher, 10.2 ± 0.23
- AATTATATACATAAGTGTACATAATATATAAACATA [XGTACX_site793] — higher, 11.1 ± 0.65
- TTTTCAATTAATAATACACACATGTATTTATTATTA [CACACA_site5774] — higher, 9.815 ± 0.007
- TGTTGTAAATTAAAGACATGCACGTGAGAAAATATA [TGCATGCA_site285] — higher, 10.4 ± 0.3
- TTATTTATTTTTTATACACACAATTATCATTTTAAG [CACACA_site22] — higher, 10 ± 0.11
- TTTTCTATGCTAAACACACTCATTGTTACAAGTTTT [CACACA_site5531] — higher, 10.01 ± 0.021
- TATATATATTTTATATGTACGTATGGAACAATATGA [XGTACX_site8167] — higher, 11.4 ± 0.92
- ATGTTCATTATATGCACACATATATATAAATGTAAT [CACACA_site2908] — higher, 9.865 ± 0.049
- TATCATAAAAAATATACACACAAAGGATATATATAT [CACACA_site1571] — within error, 9.78 ± 0.085
- TAAGTTTATTGAAATTGTACAAACATAAATGTAAAA [XGTACX_site162] — higher, 10.9 ± 0.61
- TTATATTTTTTTTTTTCACACACATTTATATTGTAT [CACACA_site9025] — higher, 9.95 ± 0.028
- TATACTAAGAAGTATTTACACACCAACAAGGCGAAA [CACACA_site8963] — higher, 10.2 ± 0.16
- AAATTAAGTATATATTGTACACATAATATGATTGTA [XGTACX_site3083] — higher, 11.2 ± 0.75
- TTATTTTCATATAGGTGTACATAAAAATATTCTTAT [XGTACX_site8861] — higher, 11.6 ± 0.82
- TTAATTAGAAATCATACACACATATAAATAAATATA [CACACA_site6225] — higher, 9.93 ± 0.15
- TGTGCCTATAAATTAACACACAGAAATATATAGAGA [CACACA_site818] — higher, 10.07 ± 0.071
- TTATTCTGACAGAATTGTACTAATGTCTTTAAAAAA [XGTACX_site1256] — higher, 10.8 ± 0.55
- TATTTGTTTGTTCGGGTGCTTACATATATTCTTATA [GTGCAC_site9972] — higher, 10.4 ± 0.28
- AATTATATAATCTTATAACATAATATAATAACATTT [CACACA_negctrl_site187] — within error, 9.48 ± 0.16
- AATATAAATAAAAACACACACAATGGTACAGATATA [CACACA_site5930] — higher, 10.9 ± 0.41
- AATTTAAATTAGAATTGTACTAGAAAAGGAATATAT [XGTACX_site6162] — higher, 10.9 ± 0.53
- AAAAAAAAAAAATAGACCTCCTAAGCAAAAGAAAAA [GTGCAC_negctrl_site634] — higher, 10.2 ± 0.35
- TATATAAGCGCATGCACACGCAAAGGTATATAAATA [CACACA_site622] — higher, 10 ± 0.11
- CATACATACGGACACACACACATATATATATATATA [CACACA_site5598] — higher, 11.2 ± 0.83
- ATAATGTTTCTTTCAACACACAAAAAATGAACACAT [CACACA_site1552] — higher, 10.3 ± 0.2
- AAAAAAGAAAAAAGGACACACATAAATATACTCACG [CACACA_site2904] — higher, 11.2 ± 0.91
- TATACATACATACATACACACACACCGATATATATA [CACACA_site7896] — higher, 10.1 ± 0.16
- TAATGACTGAAAAATTGTACATATGTATATATGTAT [XGTACX_site2415] — higher, 10.8 ± 0.31
- ATTCTATTATAATATTCACACACTAACGTAAATCAT [CACACA_site2750] — higher, 10.1 ± 0.26
- ATAATTTTCCATATTTGTACATATTTTTTTCCCTTG [XGTACX_site8146] — higher, 11 ± 0.49
- ATTTAGAAAAAATATACACACAGCCTAAACATGCAT [CACACA_site4067] — higher, 9.965 ± 0.078
- AATATAAGCAAATACACACACACATATATATATATA [CACACA_site3805] — higher, 10 ± 0.18
- AAATGTTGAAAAATATGTACATATTATATATATTAT [XGTACX_site1165] — higher, 11.3 ± 0.93
- TAAGAAAGACAAAAAAAATGAAAAGAAAAAAAATGA [CACACA_negctrl_site1469] — within error, 9.745 ± 0.035
- AAATGTTCTTAAAAATGAATAATATATATATATATA [CACACA_negctrl_site796] — within error, 9.88 ± 0.46
- ATATTTATTATTATATGTACGTAACATCTTTATAAA [XGTACX_site7016] — higher, 11.5 ± 0.98
- CATAAATACATACATACACACATATATATATATATA [CACACA_site2106] — higher, 10.1 ± 0.23
- TATTTATTTGTTTAAGGTACAGAACAAATTTTTATT [XGTACX_site7414] — higher, 11 ± 0.74
- ATTGATTATTTTCTAGTGCATAAAATAATTTTTTTT — within error, 9.79 ± 0.14
- AGTGTCATATAAAATTGTACTTTTTTTTTTTTCTTT [XGTACX_site5651] — higher, 11.5 ± 0.82
- ATATACATATTATAATGTACATATTTTAATAACCTT [XGTACX_site7617] — higher, 11.2 ± 0.65
- TTATCCTATACAAGGGAAAAATAAAATAAAATAAAT [TGCATGCA_negctrl_site272] — within error, 9.79 ± 0.13
- TAAAAAATATTATATACACACAGTATAAAAAAAAAT [CACACA_site4012] — within error, 9.89 ± 0.12
- TATTTCTTTTGGTTGGTGCATAAAATAATACAATAT [GTGCAC_site9916] — higher, 10.4 ± 0.32
- CAGACCTCTTTGTCATGTACATAAAAAAATAAAGAA [XGTACX_site7887] — higher, 11.2 ± 0.83
- ATAAAAATAATATCATGTACATATGTGTATTGTATT [XGTACX_site1768] — higher, 11 ± 0.49
- TACAAAAAGTTATACACACACGTACCTATAAATAGA [CACACA_site6571] — higher, 10.9 ± 0.51
- TATAAACAGACGAAAACACACATATGTAAATATATA [CACACA_site4428] — higher, 10 ± 0.085
- ATGAAAAAAAAAAAAAAAAAAAAAAAAAAAAAAAAA [CACACA_negctrl_site1405] — within error, 9.725 ± 0.092
- CTTGTACCTAGAAATACACACAATTATATAACTTAT [CACACA_site2838] — higher, 11 ± 0.61
- ATAAATGAAGATAAATTAAAAAAAAAAAAAAAAAAA [CACACA_negctrl_site992] — within error, 9.58 ± 0.41
- GAATGTATTCATAAATGTACTTATAATATTATAATA [XGTACX_site3466] — higher, 11.2 ± 0.81
- ATAACATACATAACAACACACAATATTTATATGTAT [CACACA_site210] — higher, 9.85
- AATACATAAATATTTTGTACATATTATATAAAATAT [XGTACX_site1627] — higher, 10.8 ± 0.52
- CGACTTTTAAAATATACACACATATATATATATATA [CACACA_site825] — within error, 10.1 ± 0.4
- TATAAGAAAATAATGTGTACTAAATAATAAATGCAT [XGTACX_site1204] — higher, 11.3 ± 0.9
- CCACATGAGATGATTACACACATATAAATATTTACA [CACACA_site6222] — higher, 10.05 ± 0.042
- ACTTTTTAATAATAATAATTATATATATATATATAT [TGCATGCA_negctrl_site459] — within error, 9.98 ± 0.33
- ATATATATTTAATTTACACACAAAAAAAATTGTTGG [CACACA_site961] — higher, 9.94
- TCCATTCTATTTTTTACACACGTATGTAAATATTAT [CACACA_site2686] — higher, 10.3 ± 0.26
- ACGAATTAAATGGATTAATATATATATGTATATTTA [CACACA_negctrl_site1512] — the same, 9.63 ± 0.2
- TTAAATACTTTTCGAAGTACATTATATATATAATAT [XGTACX_site7530] — higher, 11.2 ± 0.69
- CGCAACACTATTTGGGTGCTCTTCAAAAAAAAAAAA [GTGCAC_site9598] — within error, 10 ± 0.33
- AGAATATATATAATAGTGCAATGTACAATGAACAAA [GTGCAC_site9577] — higher, 10.7 ± 0.34
- AAAAAAAAATATATTGCACACCTCTCAATAAAAAAA [CACACA_site172] — within error, 10 ± 0.3
- ATTTGCTTTTATTTTACACACTTGCTCCTGTTGTAC [CACACA_site1088] — higher, 10.9 ± 0.42
- TGTTTAACATTTATATGTACATATATTCACATATTA [XGTACX_site342] — higher, 11.1 ± 0.67
- TAAAATATAAGACACACACACATATATTTATATATC [CACACA_site6248] — higher, 9.96 ± 0.099
- TACCAAATCACCCCTTGTACCCATTTTAAAATTTTC [XGTACX_site396] — higher, 11.3 ± 0.72
- ATAAACAGATCATATACATGCATATATGTAGAATAA [TGCATGCA_site157] — within error, 9.765 ± 0.021
- ATTCTAATTACATATACACACAAAGGTTCATAACAA [CACACA_site3076] — higher, 10.2 ± 0.22
